Test results reported in publication PMC6919601, “Identification of Plasmodium dipeptidyl aminopeptidase allosteric inhibitors by high throughput screening” (PLoS ONE, 2019).
The campaign covered roughly 110,000 compounds. About 230 (0.21%) showed an effect of 50% or more. Some of the results follow.
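Also: 30 min substrate incubation versus DMSO and 10 µM JCP410 controls.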

Each molecule was assayed against DPAP1 (Plasmodium falciparum, UniProt Q8IIJ9) (assay: primary screen, percent inhibition; read by cleavage of a fluorogenic dipeptide substrate; higher = more effect of the substance).
Sequence of DPAP1 (Q8IIJ9 whole entry, looked up): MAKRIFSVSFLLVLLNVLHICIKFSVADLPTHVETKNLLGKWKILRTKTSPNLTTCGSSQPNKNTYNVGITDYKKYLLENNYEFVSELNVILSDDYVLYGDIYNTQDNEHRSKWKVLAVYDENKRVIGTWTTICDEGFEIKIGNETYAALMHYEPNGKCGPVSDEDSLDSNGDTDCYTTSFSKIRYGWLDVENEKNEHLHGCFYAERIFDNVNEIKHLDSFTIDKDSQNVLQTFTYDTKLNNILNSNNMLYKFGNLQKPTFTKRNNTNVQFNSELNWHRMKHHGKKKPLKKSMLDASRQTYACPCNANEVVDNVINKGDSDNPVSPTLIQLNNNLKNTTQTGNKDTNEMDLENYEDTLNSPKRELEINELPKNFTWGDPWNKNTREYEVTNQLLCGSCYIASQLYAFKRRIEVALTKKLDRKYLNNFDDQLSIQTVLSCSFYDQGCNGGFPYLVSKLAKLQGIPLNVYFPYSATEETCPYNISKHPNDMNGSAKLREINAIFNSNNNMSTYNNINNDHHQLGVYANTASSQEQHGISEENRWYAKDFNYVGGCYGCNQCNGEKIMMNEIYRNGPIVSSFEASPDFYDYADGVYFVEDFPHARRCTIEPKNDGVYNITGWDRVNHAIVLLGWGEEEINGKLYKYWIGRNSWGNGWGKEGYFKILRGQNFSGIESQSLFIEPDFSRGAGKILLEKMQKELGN
Parameters: species or system P. falciparum D10 trophozoite lysates; single well
For COc1ccc(-c2csc(/C(C#N)=C\c3cccnc3)n2)cc1, the “% Inhibition @ 10 uM” value was -12%. COc1ccc2c(OC)c3ccoc3nc2c1OC was tested, and the “% Inhibition @ 10 uM” value was -0.687%. With O=C(NCc1ccccc1)c1ccc(CS(=O)c2ccccc2)o1 (stereo not shown) the “% Inhibition @ 10 uM” value was -6.89%. With N#C/C(=C\c1ccc(Cl)cc1)c1nc(-c2ccccc2O)cs1 the “% Inhibition @ 10 uM” value was 0.131%. For COc1cc(C2C(C#N)=C(N)Oc3[nH]nc(C(F)(F)F)c32)ccc1OCCN1CCOCC1 (stereo not shown), the “% Inhibition @ 10 uM” value was -2.56%. O=[N+]([O-])c1ccc(CN2CCN(c3cccc(C(F)(F)F)c3)CC2)cc1 was tested, and the “% Inhibition @ 10 uM” value was -1.77%. For C(=N\n1cnnc1)/c1ccccc1, the “% Inhibition @ 10 uM” value was 3.06%. In the case of COc1cccc2c1CCc1c-2nc2ccccc2c1C(=O)O, the “% Inhibition @ 10 uM” value is reported as 3.68%. In the case of CN1CC2=C(OC(N)=C(C#N)C2c2ccc(F)cc2)/C(=C/c2ccc(F)cc2)C1 (stereo not shown), the “% Inhibition @ 10 uM” value is reported as -4.67%. For COc1ccccc1N1CCN(C2CC(=O)N(c3ccc(C(C)=O)cc3)C2=O)CC1 (stereo not shown), the “% Inhibition @ 10 uM” value was 2.92%. In the case of CCOc1ccc(CCNS(=O)(=O)c2ccc3[nH]c4c(c3c2)CCCC4)cc1OCC, the “% Inhibition @ 10 uM” value is reported as -1.95%. For Cn1c(=O)c2c(ncn2Cc2ccc(C#N)cc2)n(C)c1=O, the “% Inhibition @ 10 uM” value was 4.22%. In the case of O=C(CNC1=NC(=O)C(c2ccccc2)(c2ccccc2)N1)NCc1ccc(F)cc1, the “% Inhibition @ 10 uM” value is reported as 4.53%. COC(=O)c1nnn(-c2nonc2N)c1CN1CCC(C)CC1 was tested, and the “% Inhibition @ 10 uM” value was 14.6%. With CC(C)=CCCC(C)CN1CCC(O)CC1 (stereo not shown) the “% Inhibition @ 10 uM” value was -2.95%. In the case of COc1nc(Nc2ccc(C)cc2)nc(OC)n1, the “% Inhibition @ 10 uM” value is reported as -4.35%. With CC(C)(C)n1ncc2c(=O)n(Cc3cccc4ccccc34)cnc21 the “% Inhibition @ 10 uM” value was -3.53%. With COc1ccccc1CNC(=O)c1ccc2nc3[nH]c4ccccc4c3nc2c1 the “% Inhibition @ 10 uM” value was -2.14%. O=C(NCCc1cccs1)c1ccc(-n2c(-c3ccccc3)nc3cccnc32)cc1 was tested, and the “% Inhibition @ 10 uM” value was -4.97%. With Nc1c(-c2nc(-c3ccc4c(c3)OCO4)no2)nnn1-c1ccccc1F the “% Inhibition @ 10 uM” value was -6.87%. For CC1=C(C(=O)Nc2ccccc2)C(c2ccc(O)cc2)C(C#N)=C(SCc2ccccc2)N1 (stereo not shown), the “% Inhibition @ 10 uM” value was -0.216%. In the case of CCCN1CCN(CCCNC(=O)Cn2nc(-c3ccccc3)ccc2=O)CC1, the “% Inhibition @ 10 uM” value is reported as -2.99%. In the case of OCC1CCCN(Cc2cccc(F)c2)C1 (stereo not shown), the “% Inhibition @ 10 uM” value is reported as -4.58%. With Cc1ccc2nc(Nc3ncc4c(n3)CC(C)(C)CC4=O)nc(C)c2c1 the “% Inhibition @ 10 uM” value was -2.46%. With COC(=O)c1ccc(OCC(O)CNS(=O)(=O)c2ccccc2C(=O)O)cc1 (stereo not shown) the “% Inhibition @ 10 uM” value was 1.76%. Cc1ccc(NC(=O)C(CC(C)C)NC(=O)C2CCC(C)CC2)nc1 (stereo not shown) was tested, and the “% Inhibition @ 10 uM” value was -0.972%. In the case of CC(=O)N1CCC2(CC1)OC(=O)C(C)=C2C(=O)NCCCN1CCN(C)CC1, the “% Inhibition @ 10 uM” value is reported as -1.31%. In the case of Cc1ccc(-c2nc(C(=O)NCCN3CCOCC3)c3n2CCCCC3)cc1, the “% Inhibition @ 10 uM” value is reported as -1.98%. In the case of CSc1ccc(/C=N/S(=O)(=O)c2ccccc2)cc1, the “% Inhibition @ 10 uM” value is reported as -1.06%. For Cc1ccc(/C=C2\C(=O)NC(=O)N(C)C2=O)o1, the “% Inhibition @ 10 uM” value was 5.31%. O=C(Nc1cc(-c2ccccc2)[nH]n1)C(F)(F)F was tested, and the “% Inhibition @ 10 uM” value was -5.17%. COC(=O)/C(C#N)=C/c1c(Oc2ccccc2Cl)nc2c(C)cccn2c1=O was tested, and the “% Inhibition @ 10 uM” value was 8.21%. With O=C(NCCN1CCOCC1)c1ccc(CN2CC(=O)N3CCCCC3C2=O)cc1 (stereo not shown) the “% Inhibition @ 10 uM” value was -0.0871%. For CCOC(=O)c1cnc(SCC(=O)N(CC)Cc2ccccc2)nc1N, the “% Inhibition @ 10 uM” value was -3.19%. In the case of COc1ccccc1NC(=O)C12CCC(C)(c3nc4ccccc4nc31)C2(C)C (stereo not shown), the “% Inhibition @ 10 uM” value is reported as -0.622%. In the case of CCOC(=O)c1sc(NC(=O)/C=C/c2ccc(OCC)cc2)c(C(=O)OCC)c1C, the “% Inhibition @ 10 uM” value is reported as 0.222%. In the case of O=C(Nc1ccn(-c2ccccc2)n1)c1ccccc1F, the “% Inhibition @ 10 uM” value is reported as 3.68%. For COc1ccc(C2C(C#N)=C(N)N(c3ccccc3)C3=C2C(=O)CC(C)(C)C3)cc1CN1CCOCC1 (stereo not shown), the “% Inhibition @ 10 uM” value was 0.317%. In the case of COc1ccc(OC)c(NC(=O)C23CC4CC(C2)CC(n2cnc(Br)n2)(C4)C3)c1, the “% Inhibition @ 10 uM” value is reported as -3.37%. For O[C@H]1CC[C@H](NC2CCC(c3ccccc3)CC2)CC1 (stereo partly shown), the “% Inhibition @ 10 uM” value was 3.48%. Cc1cc(C)nc(/N=C(\N)NC2CCCCCC2)n1 was tested, and the “% Inhibition @ 10 uM” value was 10%. For CC(C)=C1C2C=CC1C(C(=O)Nc1cc(C)ccc1C)C2C(=O)O (stereo not shown), the “% Inhibition @ 10 uM” value was 5.24%. CC(=O)c1ccc(N2CCN(Cc3ccc(C(C)C)cc3)CC2)cc1 was tested, and the “% Inhibition @ 10 uM” value was -6.44%. In the case of COc1ccccc1/C=C/C=C1\N=C(c2ccccc2OC)OC1=O, the “% Inhibition @ 10 uM” value is reported as 8.21%. In the case of CC1CCC/C=C/C2CC(O)CC2C(O)/C=C/C(=O)O1 (stereo not shown), the “% Inhibition @ 10 uM” value is reported as 0.275%. With CC[C@H](NC(=O)[C@H](Cc1nccs1)NC(=O)c1ccc(-c2ccccc2Cl)nc1)C(=O)c1nc2ccccc2o1 the “% Inhibition @ 10 uM” value was 2.87%. CCCCCC12CCC(O)(CC1)CC2O (stereo not shown) was tested, and the “% Inhibition @ 10 uM” value was 4.6%. For CNC(=O)C1CC(=O)N(CCc2ccc(OC)c(OC)c2)/C(=N/c2cccc(C(F)(F)F)c2)S1 (stereo not shown), the “% Inhibition @ 10 uM” value was -9.75%. In the case of CC(C)c1ccc(NS(=O)(=O)c2ccc(Cl)nc2)cc1, the “% Inhibition @ 10 uM” value is reported as 3.24%.
